# Reference: article PMC4336329 (PLoS ONE, 2015)
# The whole screen tested about 310,000 compounds, of which about 2,200 (0.71%) showed an effect of 50% or more. Effects have a minus sign here. This is one part of the list.
# Target: human ether-à-go-go-related gene (hERG) potassium channel (human, UniProt Q12809)
# Test: primary screen, population patch clamp on CHO cells stably expressing hERG
# human ether-à-go-go-related gene (hERG) potassium channel, sequence (Q12809 whole entry, looked up): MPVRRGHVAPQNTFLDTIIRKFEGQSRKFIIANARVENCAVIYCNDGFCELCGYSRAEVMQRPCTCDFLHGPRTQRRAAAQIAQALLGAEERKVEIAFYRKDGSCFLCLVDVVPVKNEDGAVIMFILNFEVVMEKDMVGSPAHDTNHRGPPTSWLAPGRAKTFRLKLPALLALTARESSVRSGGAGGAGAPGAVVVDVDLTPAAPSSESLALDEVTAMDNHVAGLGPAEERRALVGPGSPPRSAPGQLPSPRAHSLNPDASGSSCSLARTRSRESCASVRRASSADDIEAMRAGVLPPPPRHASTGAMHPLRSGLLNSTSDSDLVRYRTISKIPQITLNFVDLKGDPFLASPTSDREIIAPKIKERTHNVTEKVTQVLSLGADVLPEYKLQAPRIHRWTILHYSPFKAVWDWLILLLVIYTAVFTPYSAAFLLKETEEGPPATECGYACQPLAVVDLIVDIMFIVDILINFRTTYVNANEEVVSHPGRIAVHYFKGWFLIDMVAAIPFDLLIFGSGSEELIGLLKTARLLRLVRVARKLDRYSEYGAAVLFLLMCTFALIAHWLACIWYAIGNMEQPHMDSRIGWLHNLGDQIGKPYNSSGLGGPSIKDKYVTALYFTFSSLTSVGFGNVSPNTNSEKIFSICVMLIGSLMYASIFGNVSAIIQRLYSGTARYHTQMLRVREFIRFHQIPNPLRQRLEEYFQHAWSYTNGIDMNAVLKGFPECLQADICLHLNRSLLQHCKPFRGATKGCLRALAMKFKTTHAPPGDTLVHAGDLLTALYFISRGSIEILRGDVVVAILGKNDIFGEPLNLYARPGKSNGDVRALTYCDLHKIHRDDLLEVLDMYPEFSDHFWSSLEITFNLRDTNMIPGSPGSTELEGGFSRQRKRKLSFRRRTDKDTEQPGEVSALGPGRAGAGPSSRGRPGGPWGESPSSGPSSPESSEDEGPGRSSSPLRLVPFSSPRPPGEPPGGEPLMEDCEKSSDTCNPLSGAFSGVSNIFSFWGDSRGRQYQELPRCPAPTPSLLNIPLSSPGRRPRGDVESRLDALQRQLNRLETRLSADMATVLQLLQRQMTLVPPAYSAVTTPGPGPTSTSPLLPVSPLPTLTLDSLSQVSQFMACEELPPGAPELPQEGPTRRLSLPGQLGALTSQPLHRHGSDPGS
row,Structure (SMILES),"hERG current change (%, negative = inhibition) at 1uM [%]"
1,Cc1cccc(NC(=O)c2cc(S(=O)(=O)N3CCCCC3)c[nH]2)c1C,9.14
2,O=C(Nc1ccc(F)cc1)c1ccc2nc[nH]c2c1,6.88
3,COC(=O)/C=C(\Oc1ccccc1)C1(O)CCCCC1,7.17
4,O=C(O)c1ccc(NC(=S)NC(=O)c2cncc(Br)c2)cc1,17.7
5,O=C1C2C3c4ccccc4C(c4ccccc43)C2C(=O)N1Cc1cccnc1 (centres unmarked),2.65
6,COCC1CCN(C(=O)c2cc(COc3ccc4ncccc4c3)on2)CC1,13.2
7,CC1(c2ccccc2)NC(=O)N(CC(=O)Nc2cccc(C#N)c2)C1=O (centres unmarked),7.63
8,O=C(c1cc2ccccc2oc1=O)N1CCSC1c1ccco1 (centres unmarked),11.7
9,O=C(Nc1ccon1)c1cc2c(s1)CCCCCC2,-7.68
10,CCc1c(C#N)c(SCc2c(C)noc2C)nc2c1C(=O)CC(C)(C)C2,0.201
11,O=C1c2cc(O)c(O)cc2S(=O)(=O)C1c1ccccc1 (centres unmarked),10.7
12,CC1CCN(C(=O)CCNS(=O)(=O)c2ccc3c(c2)c(=O)n(C)c(=O)n3C)CC1,14.1
13,Cc1cc(C)c2c(N)c(S(=O)(=O)Cc3ccccc3)sc2n1,-5.52
14,Cc1ccc(/C=N/OC(=O)c2nn(C)cc2Cl)cc1,13.8
15,O=C(COc1ccc(Cl)cc1Cl)N/N=C1\CCCc2ccccc21,6.54
16,Cc1ccc2nc3n(c2c1)CCCN3,8.69
17,CCOc1ccc(NC(=O)CSc2ccc3nnc(-c4cccnc4)n3n2)cc1,-25.1
18,C=CCn1c(CCCOc2ccc(Cl)cc2Cl)n[nH]c1=S,14.9
19,Cn1ccnc1CN1CCN(C(=O)c2cc(COc3ccc(F)c(F)c3)on2)CC1,-0.0734
20,O=C(CSc1ccccc1)NCCCc1ccccc1,-5.86
21,CS(=O)(=O)n1nc(C(=O)N2CCOCC2)nc1N,9.07
22,Cc1csc2nnc(N)n12,-0.437
23,CC(C)C(C(=O)Nc1ccncc1)c1ccc(Cl)cc1 (centres unmarked),15.3
24,Cc1ccc2c(CSc3nc4nc(C)cc(C)n4n3)cc(=O)oc2c1,5.08
25,Cn1c(=O)n(Cc2ccco2)c(=N)c2c3c(sc21)CCCC3,1.03
26,COc1ccc(CCNS(=O)(=O)c2ccc(Cl)s2)cc1OC,4.51
